Measurements reported in publication PMC4336329 (PLoS ONE, 2015).
In all, about 310,000 compounds went through this assay and about 2,200 (0.71%) showed an effect of 50% or more. Effects have a minus sign here. This is one part of the list.

Each molecule was assayed against human ether-à-go-go-related gene (hERG) potassium channel (human, UniProt Q12809) (assay: primary screen, population patch clamp on CHO cells stably expressing hERG).
human ether-à-go-go-related gene (hERG) potassium channel, sequence (Q12809 whole entry, looked up): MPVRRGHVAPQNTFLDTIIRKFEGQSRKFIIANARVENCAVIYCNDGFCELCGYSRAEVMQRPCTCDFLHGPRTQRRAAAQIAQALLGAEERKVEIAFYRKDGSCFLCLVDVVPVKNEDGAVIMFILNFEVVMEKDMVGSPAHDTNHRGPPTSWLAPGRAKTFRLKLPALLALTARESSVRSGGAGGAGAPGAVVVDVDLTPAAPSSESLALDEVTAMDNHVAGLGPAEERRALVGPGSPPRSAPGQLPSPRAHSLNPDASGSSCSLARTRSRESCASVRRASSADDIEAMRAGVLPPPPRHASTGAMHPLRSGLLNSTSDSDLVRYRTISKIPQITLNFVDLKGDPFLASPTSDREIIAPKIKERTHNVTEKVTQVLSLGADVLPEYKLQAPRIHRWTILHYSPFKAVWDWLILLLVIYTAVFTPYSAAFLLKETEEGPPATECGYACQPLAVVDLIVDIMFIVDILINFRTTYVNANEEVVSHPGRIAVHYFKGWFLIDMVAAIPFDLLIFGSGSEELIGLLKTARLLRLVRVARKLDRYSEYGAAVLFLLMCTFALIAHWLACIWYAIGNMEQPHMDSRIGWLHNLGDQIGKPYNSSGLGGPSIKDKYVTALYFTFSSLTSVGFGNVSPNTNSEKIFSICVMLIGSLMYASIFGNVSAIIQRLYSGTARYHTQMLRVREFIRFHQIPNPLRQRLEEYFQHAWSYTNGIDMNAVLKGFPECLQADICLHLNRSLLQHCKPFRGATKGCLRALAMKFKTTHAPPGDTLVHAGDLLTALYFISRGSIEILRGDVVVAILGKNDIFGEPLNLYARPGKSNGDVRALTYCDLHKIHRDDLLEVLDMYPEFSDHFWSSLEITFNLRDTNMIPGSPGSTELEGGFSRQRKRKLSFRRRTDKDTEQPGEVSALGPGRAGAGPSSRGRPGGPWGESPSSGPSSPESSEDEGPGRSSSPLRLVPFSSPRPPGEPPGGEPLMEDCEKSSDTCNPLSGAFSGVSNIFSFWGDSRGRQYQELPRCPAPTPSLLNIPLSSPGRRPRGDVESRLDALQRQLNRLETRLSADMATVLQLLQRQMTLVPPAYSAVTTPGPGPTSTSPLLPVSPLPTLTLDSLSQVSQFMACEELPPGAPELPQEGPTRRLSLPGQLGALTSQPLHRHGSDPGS

| SMILES | hERG current change (%, negative = inhibition) at 1uM |
| --- | --- |
| COc1ccc(CN2CC(=O)N(c3ccc(C)cc3C)C2=S)cc1OC | 8.87% |
| Nc1c(NC2CCCCC2)c2ccccc2oc1=O | 5.06% |
| CC1CCCCN1CC(=O)c1c[nH]c2ccccc12 (stereo not drawn) | 9.55% |
| COc1ccc(OC)c(NC(=O)NCCc2cccc(Cl)c2)c1 | 10.1% |
| Cc1cc(NC(=O)c2cccc(S(=O)(=O)N3CCOCC3)c2)c2ccccc2n1 | 2.12% |
| CC(C)CCn1c(=O)c2sccc2n2c(CCCC(=O)N3CCN(c4ccccn4)CC3)nnc12 | -44% |
| N#Cc1ccc(Oc2cccnc2)cc1C#N | 6.45% |
| NC(=O)c1c(NC(=O)c2cccnc2)sc2c1CCCCC2 | 11.6% |
| CCc1ccccc1N(C)S(=O)(=O)c1ccc2[nH]cc(C(=O)O)c(=O)c2c1 | 9.01% |
| Clc1ccc(CNc2nnnn2-c2ccccc2)c(Cl)c1 | 11.3% |
| CCOC(=O)C1=C(C)NC(=O)NC1c1ccccc1 (stereo not drawn) | 9.26% |
| Cc1ccc(C(=O)NNC(=O)C2CCCN(c3ncccn3)C2)cc1 (stereo not drawn) | 11.8% |
| CCN(C(=O)CCS(=O)(=O)c1ccc2c(c1)oc(=O)n2C)c1ccc(OC)cc1 | 1.64% |
| CC(Sc1n[nH]c(-c2ccccc2)n1)C(=O)c1c(N)n(C)c(=O)n(C)c1=O (stereo not drawn) | 12.1% |
| COCCNC(=O)c1ccc2c(c1)nc(C)n2-c1cccc(F)c1 | 3.17% |
| c1ccc(Cc2nnc(Sc3ccccc3)c3ccccc23)cc1 | 8.59% |
| COC(=O)[C@@H]1C[C@H]1[C@@H](NC(=O)c1cc(C)on1)c1ccccc1 | 7.01% |
| O=C1CC(NCc2ccc3c(c2)OCO3)C(=O)N1CCc1ccccc1 (stereo not drawn) | -4.52% |
| COCCCn1cc(C(=O)c2cc(OC)ccc2OCC(=O)Nc2cc(C)on2)cc(C#N)c1=O | -9.21% |
| COc1ccc(C2=NCC(CSc3nnc(-c4ccc5c(c4)OCO5)o3)S2)cc1 (stereo not drawn) | 12.2% |
| O=C(Nn1cnnc1)C1Cc2ccccc2CN1S(=O)(=O)c1ccc(F)cc1 (stereo not drawn) | 6.16% |
| Cc1cc2ccccc2n1CCNCc1c(C(=O)N2CCOCC2)nc2ccccn12 | 9.42% |

| SMILES | hERG current change (%, negative = inhibition) at 1uM |
| --- | --- |
| CCCNC(=O)CCC(NS(=O)(=O)c1ccc(C)cc1)C(=O)NCCC (stereo not drawn) | 7.66% |
| COc1cccc(Nc2c([N+](=O)[O-])cncc2[N+](=O)[O-])c1 | 9.39% |
| Cl.Cn1nnnc1SCCNCc1cccc2ccccc12 | -3.01% |
| O=C(COC(=O)c1ccncc1)Nc1cccc(Cl)c1 | 3.85% |
| Cc1nc(C)c(C(=O)C2=C(O)C(=O)N(CCCn3ccnc3)C2c2ccc(Cl)cc2)s1 (stereo not drawn) | 9.51% |
| COC(=O)c1ccc(/C=N/NC(=O)C(=O)NCC2CCCO2)cc1 (stereo not drawn) | 9.26% |
| O=C(O)C1Cc2ccccc2CN1S(=O)(=O)/C=C/c1ccccc1 (stereo not drawn) | 11.1% |
| COc1ccc(OC)c(NC(=O)CSc2nc(=O)n(CCN3CCOCC3)c3c2CCCC3)c1 | 7.85% |
| Cc1ccc(S(=O)(=O)N2CCN(Cc3cc(C(C)(C)C)ccc3O)CC2)cc1 | 15.2% |
| CN1CCN(CC(=O)N2c3ccc(S(=O)(=O)NCCNC(=O)OC(C)(C)C)cc3C(=O)Nc3cccnc32)CC1 | 4.86% |
| CCN(CC)S(=O)(=O)c1ccc(NC2=NS(=O)(=O)c3ccccc32)cc1 | -8.13% |
| COCCN1CN(S(=O)(=O)c2ccccc2)c2nc3ccccc3nc21 | 5.35% |
| CCc1c(O)nc(SCC(=O)Nc2ccccc2)n(C(C)CC)c1=O (stereo not drawn) | 5.08% |
| COc1cccc(CNC(=O)CSCc2cnn(-c3ccccc3)c2-n2cccc2)c1OC | -12.8% |
| CC1CCC2(CC1)NC(=O)N(CC(=O)NC(=O)Nc1ccc3c(c1)OCCO3)C2=O (stereo not drawn) | -2.28% |
| N#CCC(=O)N/N=C/c1cc(-c2ccccc2)n(-c2ccc(Cl)cc2)c1-c1ccccc1 | 9.32% |
| Cc1cc(C)c(S(=O)(=O)c2ccccc2)c(OC(=O)c2c(Cl)cccc2Cl)n1 | 10.5% |
| O=C(CNc1n[nH]c(=O)[nH]c1=O)N/N=C/c1cccnc1 | -4.84% |
| FC(F)(F)c1ccnc(Sc2n[nH]c(C(F)(F)F)n2)c1 | 9.77% |
| O=C(CC1C(=O)NCCN1Cc1c(F)cccc1Cl)NCCCOc1cccnc1 (stereo not drawn) | 29.8% |
| O=C(CCc1nnc2n(Cc3ccccc3)c(=O)c3ccccc3n12)NCCN1CCOCC1 | 3.25% |
| O=C(COC(=O)COc1ccc(Cl)cc1Cl)Nc1cccnc1Cl | 15.5% |

| SMILES | hERG current change (%, negative = inhibition) at 1uM |
| --- | --- |
| O=C(Oc1ccc2ccccc2c1)c1ccccc1 | -8.2% |
| O=C(O)c1ccccc1C(=O)Nc1ccc(S(=O)(=O)Nc2nccs2)cc1 | 7.39% |
| COc1ccc([C@@H]2COc3c(ccc4c3C=CC(C)(C)O4)C2)c(OC)c1 | 16.7% |
| Cc1ccc(NS(=O)(=O)c2c(C(=O)N3CCCCCC3)c(C)n(C)c2C)c(C)c1 | 10.7% |
| COc1ccc(C(=O)C[n+]2cccc(C)c2C)cc1[N+](=O)[O-].[Br-] | 2.73% |
| CCN1CCN(c2ncnc3scc(-c4ccc(C)cc4)c23)CC1 | 3.26% |
| CC(C)(C)OC(=O)CC12CCCCC1NC(=O)O2 (stereo not drawn) | 11.7% |
| CCOC(=O)C1CCN(C(=O)c2ccc(Br)o2)CC1 | 8.45% |
| Cc1ccc(C(=O)NNC(=O)CCC(=O)Nc2cccc(Cl)c2C)cc1 | 3.03% |
| O=C(OCc1ccc([N+](=O)[O-])cc1)C1CC(=O)N(c2ccccc2)C1 (stereo not drawn) | -36% |
| O=C(O)CC1=C(c2ccc(F)cc2)CCC1=O | 15.3% |
| CC1=C(C(=O)OC2CCCCC2)C(c2ccccc2)NC(=O)N1 (stereo not drawn) | 10.9% |
| S=C(NCc1ccccn1)Nc1ccccc1Cl | 6.1% |
| Cc1ccc(S(=O)(=O)n2ccc3c(OCCOCCSCC(NC(=O)OC(C)(C)C)C(=O)O)cccc32)cc1 (stereo not drawn) | 11.1% |
| Cc1scc(C(=O)Nc2ccon2)c1-c1ccccc1 | 5.54% |
| O=C(NNC(=S)Nc1ccc(Cl)cc1Cl)c1cccnc1 | 9.93% |
| COc1cccc(S(=O)(=O)NCc2ccc(C(=O)NCc3ccccn3)cc2)c1 | 0.029% |
| COc1ccc(C(=O)OCC(=O)c2c[nH]c3ccccc23)cc1OC | 11.7% |
| CCCCCN(C(=O)CCC(=O)OCC(=O)N(C)Cc1ccccc1C)c1c(N)n(CCCC)c(=O)[nH]c1=O | 11.4% |
| O=C(N/N=C/c1cccs1)c1cncc(Br)c1 | 1.1% |
| COc1cccc(NC(=O)CN(C)C(=O)c2cc(-c3ccc(C)o3)nc3ccccc23)c1 | 8.81% |
| COc1ccc(OC)c(N=C2SCCCN2C(=O)c2ccc(N3C(=O)CCC3=O)cc2)c1 | 13.1% |

| SMILES | hERG current change (%, negative = inhibition) at 1uM |
| --- | --- |
| CCOC(=O)c1sc(NC(=O)C(C)(C)C)cc1C | 17.5% |
| Cc1cc(=O)oc2ccc(OC(C)C(=O)O)cc12 (stereo not drawn) | 11.9% |
| COc1ccc(CN(C)CC(=O)Nc2sc3c(c2C#N)CCC3)c(OC)c1 | 11.1% |
| Cn1c(SCC(=O)Nc2ccccc2F)nc2c(c1=O)SCC2 | 11.4% |
| O=C(CSCC(=O)N1CCOCC1)Nc1ccccc1 | 1.78% |
| O=C(Nc1ccc(C(O)(C(F)(F)F)C(F)(F)F)cc1)c1ccc(Cl)c([N+](=O)[O-])c1 | 13.1% |
| C/C(=C\C(=O)c1ccc(F)cc1)Nc1ccc(N2CCOCC2)cc1 | 7.27% |
| COc1cc(CNCC(O)c2ccccc2)ccc1OCc1ccc(Cl)nc1.Cl (stereo not drawn) | -19.2% |
| COc1ccc(C(c2c(C)[nH]n(C(N)=S)c2=O)C(C#N)C#N)cc1 (stereo not drawn) | 14.7% |
| O=C(c1cccc(F)c1)N1CCN(c2ccc([N+](=O)[O-])c3cccnc23)CC1 | -31.6% |
| O=C(COC(=O)c1ccc(OC(F)F)cc1)NC(=O)NC1CCCC1 | 7.77% |
| Cc1cc2cc(CNC(=O)C(C)Oc3ccccc3)ccc2n1C (stereo not drawn) | 3.43% |
| CN1CCN(CCC(=O)OC2CC3CCC(C2)N3C)CC1.Cl (stereo not drawn) | 4.23% |
| COc1ccc(NS(=O)(=O)CC(C)C)c(OC)c1 | 4.64% |
| O=C(OCCN1CCCC1=O)c1cncc(Br)c1 | 1.6% |
| COc1ccc(S(=O)(=O)N(NC2=NS(=O)(=O)c3ccccc32)C(=O)C(C)C)cc1 | 7.09% |
| Cc1ccc(S(=O)(=O)Nc2cccc(-c3ccc4nncn4n3)c2)cc1 | 16.5% |
| Cc1c(OCC(=O)NC2CC(C)(C)NC(C)(C)C2)ccc2c1oc(=O)c1ccccc12 | -4.3% |
| COc1ccccc1-c1cc(SC)c(C#N)c(=O)o1 | 14.4% |
| Cc1ccc(CNC(=O)C(Cc2ccccc2)NS(=O)(=O)c2ccc(Br)s2)cc1 (stereo not drawn) | 8.51% |
| Cc1ccn2c(C(=O)NN=C3CCN(C)CC3)c(C)nc2c1 | 11.4% |
